# Results as given in PMC4336329 (PLoS ONE, 2015).
# The campaign covered roughly 310,000 compounds. About 2,200 (0.71%) showed an effect of 50% or more. The effect is printed as a negative number. The list shows a part of the results.
# Target: human ether-à-go-go-related gene (hERG) potassium channel (human, UniProt Q12809)
# Test: primary screen, population patch clamp on CHO cells stably expressing hERG
# Sequence of human ether-à-go-go-related gene (hERG) potassium channel (Q12809 whole entry, looked up): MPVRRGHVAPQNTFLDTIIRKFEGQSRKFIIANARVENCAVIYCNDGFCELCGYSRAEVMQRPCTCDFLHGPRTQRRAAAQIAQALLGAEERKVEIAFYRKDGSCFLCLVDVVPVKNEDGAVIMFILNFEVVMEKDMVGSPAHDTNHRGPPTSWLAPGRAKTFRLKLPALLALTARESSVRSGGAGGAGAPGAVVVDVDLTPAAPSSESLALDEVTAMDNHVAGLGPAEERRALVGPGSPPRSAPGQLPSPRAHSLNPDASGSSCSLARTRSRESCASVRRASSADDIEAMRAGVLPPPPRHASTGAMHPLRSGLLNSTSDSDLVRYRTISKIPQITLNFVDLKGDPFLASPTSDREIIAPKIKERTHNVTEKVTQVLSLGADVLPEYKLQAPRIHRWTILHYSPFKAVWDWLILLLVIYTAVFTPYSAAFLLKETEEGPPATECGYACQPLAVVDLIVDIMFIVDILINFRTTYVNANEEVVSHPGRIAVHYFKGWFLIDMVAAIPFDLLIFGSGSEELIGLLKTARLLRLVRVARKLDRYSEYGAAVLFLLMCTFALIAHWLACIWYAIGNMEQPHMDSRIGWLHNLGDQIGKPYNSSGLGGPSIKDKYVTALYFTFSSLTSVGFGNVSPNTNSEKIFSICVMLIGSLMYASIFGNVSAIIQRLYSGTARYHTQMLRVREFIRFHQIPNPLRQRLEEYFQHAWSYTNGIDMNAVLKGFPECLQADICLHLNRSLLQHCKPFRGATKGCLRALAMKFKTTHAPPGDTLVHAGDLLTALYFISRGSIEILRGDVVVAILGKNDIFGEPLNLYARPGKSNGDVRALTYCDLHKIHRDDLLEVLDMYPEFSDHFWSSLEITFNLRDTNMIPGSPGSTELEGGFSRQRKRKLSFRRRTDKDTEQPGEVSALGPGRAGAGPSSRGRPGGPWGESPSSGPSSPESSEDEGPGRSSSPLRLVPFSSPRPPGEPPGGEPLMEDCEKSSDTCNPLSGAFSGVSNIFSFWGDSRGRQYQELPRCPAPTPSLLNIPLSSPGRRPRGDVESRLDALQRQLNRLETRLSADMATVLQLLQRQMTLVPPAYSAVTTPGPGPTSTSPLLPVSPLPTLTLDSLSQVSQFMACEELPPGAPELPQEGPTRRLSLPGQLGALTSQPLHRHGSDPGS
row,Compound,"hERG current change (%, negative = inhibition) at 1uM [%]"
1,CCCCN1C(=O)c2ccc(C(=O)Nc3cccnc3)cc2C1=O,11.7
2,COc1ccc2c(c1OC)C(=O)N1C2SC[C@H]1C(=O)NC1CC1 (stereo partly shown),7.72
3,CC(C)CNS(=O)(=O)c1cc(C(=O)O)c(Cl)cc1Cl,14.7
4,COc1ccc(NC(=O)c2ccc(COc3ccc(C)cc3)o2)cc1,13.4
5,COc1cccc2cc(-c3cc(=O)oc4cc(C)c(O)cc34)oc12,11.5
6,CC12CNCC(C)(CN(C(c3ccccc3)c3ccccc3)C1)C2,3.71
7,CCCCN1C(=O)NC(NC(=O)C2CC2)(C(F)(F)F)C1=O (stereo not shown),7.98
8,CCOc1ccc(N2C(=O)CN(c3cccc4ccccc34)C2=S)cc1,-5.5
9,O=C(CCNC(=O)Cn1ccc2ccccc2c1=O)NCCCN1CCOCC1,12.4
10,CN(CCCC(=O)Nc1ccncc1)S(=O)(=O)c1ccc(Cl)cc1,-29.8
11,CCc1cc(C(=O)c2ccc(OC)cc2)c(NC(=O)COCC(=O)O)s1,12.5
12,O=C(Cn1cnc2ccccc2c1=O)NCCC(=O)Nc1ccc2c(c1)OCO2,5.25
13,COc1ccc(/C=N/NC(=O)c2c(-c3ccccc3)noc2C)cc1,-1
14,Cc1nc2nc(C)c(CCC(=O)N3CCOCC3)c(C)n2n1,-31
15,Cc1cccn2c(=O)c(/C=C(\C#N)C(N)=O)c(N3CCN(c4ccccc4)CC3)nc12,3.6
16,CCCCN(CC)Cc1ccc(CNC(=S)Nc2cccc(F)c2)o1,-3.68
17,COc1ccc(N2CCN(C(=O)COc3ccc4ccccc4c3)CC2)cc1,2.24
18,CC1(C)Cc2ccccc2C(N/N=C/c2ccc(Cl)cc2)=N1,16
19,CCOc1ccc(CCNC(=O)c2cc(C)on2)cc1OCC,11.6
20,CC(C)C(CC(=O)NCc1ccco1)c1ccco1 (stereo not shown),19.5
21,O=C(Nc1ccccc1)NC1CCS(=O)(=O)C1 (stereo not shown),-5.05
22,CNc1nc(C)c(C(=O)OCc2ccccc2)s1,16.5
23,O=C(Nc1ccccc1Cl)Nc1cccc2cccnc12,14.2

row,Compound,"hERG current change (%, negative = inhibition) at 1uM [%]"
1,CC(=O)C1=C(O)C(=O)N(Cc2cccnc2)C1c1ccccc1Cl (stereo not shown),-1.41
2,COc1ccc(C(=O)COC(=O)[C@H](C)Nc2ccc(C(F)(F)F)cc2[N+](=O)[O-])cc1,14
3,CNC(C)C#Cc1ccc2sc3cc(OC)c(OC)cc3c(=O)c2c1 (stereo not shown),9.32
4,O=C1/C(=C/c2cccnc2)SC(=S)N1CC1CCCO1 (stereo not shown),6.5
5,CC(=O)N1CCN(S(=O)(=O)c2cccc(C(=O)NC3CC3)c2)CC1,24.8
6,O=C(c1ccco1)N1CCN(c2ncnc3c2[nH]c2ccc(Cl)cc23)CC1,-70.1
7,Cc1c(C=O)c2ccccn2c1C(=O)c1cccs1,15.2
8,COc1ccccc1OCC(=O)Nc1ccccc1C(=O)NCc1ccco1,1.48
9,C/C(N)=C(/C#N)C(=O)COC(=O)CCS(=O)(=O)c1ccccc1,13
10,NC(=O)c1ccc(OCC2CCCO2)cc1 (stereo not shown),9.85
11,C/C(=N/NC(=O)c1sc(NS(=O)(=O)c2ccccc2)nc1C)c1ccccc1,3.63
12,O=C(CN1CCCC1)N1CCCC(c2ccc(F)cc2)c2ccc(F)cc21.O=C(O)C(=O)O (stereo not shown),-3.04
13,CC1(C)CC(=O)c2cnc(NCc3ccco3)nc2C1,11.3
14,Cc1ccc(CNS(=O)(=O)c2ccc3c(c2)NC(=O)C(C)S3)cc1 (stereo not shown),5.84
15,Cc1ccn2cc(CC(=O)O)nc2c1,3.83
16,CCOC(=O)C(CSCc1ccccc1)NC(=O)OC(C)(C)C (stereo not shown),-3.19
17,CCOc1ccc(NC(=O)CN2C(=O)CSc3ccc(S(=O)(=O)N4CCCC4)cc32)cc1,9.95
18,CCn1c2ccccc2c2cc(C3C(C#N)=C(N)Oc4n[nH]c(COC)c43)ccc21 (stereo not shown),13.3
19,O=S(=O)(NCCCc1ccccc1)c1ccc(Br)cc1,7.49
20,CC(=O)c1cnc2c(-c3cccc(Br)c3)cnn2c1C,10.9
21,CCCC(=O)NC(Nc1ccc(S(=O)(=O)Nc2cc(C)on2)cc1)(C(=O)OCC)C(F)(F)F (stereo not shown),23.1
22,O=C(Nc1ccccn1)c1ccc(Cl)c([N+](=O)[O-])c1,12.4
23,S=C1NC[C@H](Cc2ccccc2)N1CCc1cccc2ccccc12,19.2

row,Compound,"hERG current change (%, negative = inhibition) at 1uM [%]"
1,O=C(N/N=C/c1ccc(O)cc1O)C(=O)N/N=C/c1ccc(O)cc1O,12.1
2,CC(c1ccccc1)N1CC(C(=O)O)CC1=O (stereo not shown),11.6
3,COc1ccc(CCNC2CC(=O)N(C)C2=O)cc1OC (stereo not shown),1.99
4,Cc1cc(C)c(NC(=O)CS)c(Cl)c1,-5.08
5,O=C(CN1CCN(C(=O)c2ccccc2)CC1)Nc1cc(S(=O)(=O)N2CCCC2)ccc1Cl,-15.7
6,O=[N+]([O-])c1ccc(C(O)CSC(=S)N2CCCCC2)cc1 (stereo not shown),13.5
7,Cc1ccc(C)c(S(=O)(=O)NCC(c2ccco2)N2CCc3ccccc3C2)c1 (stereo not shown),1.75
8,CCOc1cc(C)c(Cl)cc1S(=O)(=O)N1CCCC1,1.64
9,CCOc1ccc(CN(C)CC(=O)Nc2ccc3c(c2)CCC3)cc1OC,0.23
10,Cc1ccc(CNC2CCCCC2)s1.Cl,5.81
11,O=C1C(Cl)=C(N2CCCCC2)C(=O)N1c1ccccc1,10.1
12,COc1cc(NC(=O)CCc2nc(-c3cccs3)no2)cc(OC)c1OC,9.53
13,COc1ccc(C(=S)N2CCOCC2)cc1OC(=O)c1ccc(C)cc1,9.36
14,N#Cc1c(NC(=O)c2ccc([N+](=O)[O-])o2)sc2c1CCC2,17.5
15,O=C(NC(CC(=O)N1CCN(c2ccccc2)CC1)c1ccccc1)c1ccccc1Cl (stereo not shown),-19.6
16,COC(=O)c1ccc(S(N)(=O)=O)o1,-3.32
17,O=C1CC[C@H](N2C(=O)c3ccccc3C2=O)C(=O)N1,11.9
18,O=C(NCC1CCCO1)c1cc(-c2ccc(F)cc2)no1 (stereo not shown),7.69
19,O=C1/C(=C/c2ccc(F)cc2)SC(=S)N1Nc1ncc(C(F)(F)F)cc1Cl,6.37
20,CCCCOc1ccc(/C=C/C(=O)NC2=Nc3ccccc3NC(C)=C2C(=O)OCC)cc1OC,9.67
21,COc1ccc(C(=O)Nc2ccccc2C(=O)Nc2ccccn2)cc1,12.3
22,C/C(N)=C(/C#N)C(=O)CSc1nnc(COc2ccccc2Cl)o1,11.7
23,COC(=O)c1cc(NS(=O)(=O)c2ccc(N3CCOCC3)c(N)c2)cc(C(=O)OC)c1,7.74

row,Compound,"hERG current change (%, negative = inhibition) at 1uM [%]"
1,NC(=O)C(=O)N/N=C/c1cccc(C(F)(F)F)c1,10.2
2,C/C(=N\NC(=O)c1cc2c(s1)CCC(C)C2)c1cccnc1 (stereo not shown),9.72
3,O=C1CC(c2cccs2)c2cc3c(cc2N1)OCCO3 (stereo not shown),10.2
4,O=[N+]([O-])c1cc(Cl)cc(/C=N/NC(=S)Nc2cc(S(=O)(=O)N3CCOCC3)ccc2Cl)c1O,13.6
5,O=C(N/C(=C\c1ccc2c(c1)OCO2)C(=O)N1CCOCC1)c1cccs1,-18.7
6,Cc1nnc(SCC(=O)Nc2nccs2)o1,11.7
7,O=C(NCCN1CCCCC1)c1ccc(Oc2cc(Cl)cc(Cl)c2)o1,5.95
8,COc1ccc(S(=O)(=O)N(C)CC(=O)Nc2cccc(C(C)=O)c2)cc1,13.1
9,Cc1ccc(-c2cc(-c3ccc(F)cc3)c(C#N)c(N)n2)o1,12.1
10,COC(=O)CC(NS(=O)(=O)c1cccs1)c1cccc2ccccc12 (stereo not shown),12.3
11,CSc1nc2sc3c(c2c(=O)[nH]1)CCC(C)C3 (stereo not shown),20
12,Cc1ccc(N(CC(=O)NC2CCCC2)C(=O)c2nsc(Cl)c2Cl)cc1,6.79
13,COc1ccc(Br)cc1S(=O)(=O)NCc1ccccc1,9.27
14,COc1ccc([N+](=O)[O-])cc1NC(=O)Cn1ccsc1=N.Cl,4.34
15,CC1CCN(CC(=O)Nc2ccccc2-c2ccccc2)CC1,-22.2
16,CCOc1ccc(/C=N/NC(=O)C2(O)c3ccccc3-c3ccccc32)cc1,11.4
17,Cc1oc2cc3oc(=O)c(CCC(=O)NCCCN4CCCC4=O)c(C)c3cc2c1C,2.06
18,COCCCNC(=O)c1ccc(Cn2c(=O)[nH]c3ccccc3c2=O)cc1,12.9
19,CCN1C(=O)[C@@H]2Cc3c([nH]c4ccccc34)C(c3ccc(OC)cc3)N2C1=S (stereo partly shown),6.42
20,Cc1ccc(Cn2c(S(=O)(=O)O)nc3ccccc32)cc1,12
21,C/C(CCC(C)C)=N\Nc1ccc(S(N)(=O)=O)cc1[N+](=O)[O-],2.32
22,O=C(Nc1cccnc1)c1ccc(N2CCCC2)c([N+](=O)[O-])c1,15.3
